Assay results as given in the supplement of paper PMC6135742.
Counter-ions that a name gives are not always drawn. ± gives the standard deviation of the averaged measurements. In all, about 2,600 compounds were measured (“MBP+ mature oligodendrocyte number relative to DMSO vehicle control”: median about -0.34, highest 2% from about 13 on). Some of the results follow.

tested on: jimpy (Plp1 jimpy) mouse iPSC-derived oligodendrocyte progenitor cells; assay: MBP+ mature oligodendrocyte number relative to DMSO vehicle control (SDs above negative control mean); higher = more surviving jimpy oligodendrocytes (rescue); conditions: 10 µM; 3 days
Method: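 Primary phenotypic screen of >3,000 bioactive compounds (Selleck L1700 and Sigma LO1280 libraries) at a single dose of 10 µM. Compounds were added to jimpy (Plp1 mutant) mouse iPSC-derived OPCs at the start of thyroid hormone-induced oligodendrocyte differentiation, one well per compound in 384-well plates. After 3 days cells were stained for MBP, Sox10 and DAPI and imaged with an Operetta system. MBP+ oligodendrocyte number and total cell number were expressed as the number of SDs above the mean of the DMSO negative control on the same plate (n=16 control wells per plate). Hits were defined as >=4 SD for oligodendrocytes and >=2 SD for total cells.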

| SMILES | MBP+ mature oligodendrocyte number |
| --- | --- |
| CN(C)c1cc2c(Nc3ccc4c(cnn4Cc4ccccc4)c3)ncnc2cn1 | -3.58 |
| COc1ccc([C@H]2CNC(=O)C2)cc1OC1CCCC1 [S- (+)-Rolipram] | 0.395 |
| NC(=O)C(=O)O [Sodium Oxamate] | -1.23 |
| COc1cc(Cc2cnc(N)nc2N)cc(OC)c1OC [Trimethoprim] | 1.04 ± 0.36 |
| COc1cc2c(cc1OC)CN(CCc1ccc(NC(=O)c3cc(OC)c(OC)cc3NC(=O)c3cnc4ccccc4c3)cc1)CC2 [Tariquidar] | -3.56 |
| COc1ccc(S(=O)(=O)Nc2nc(-c3cccc([N+](=O)[O-])c3)cs2)cc1OC | -0.598 |
| C[C@@H](Oc1cc(-n2cnc3ccc(CN4CCN(C)CC4)cc32)sc1C(N)=O)c1ccccc1C(F)(F)F | < -4.81 |
| CNCC[C@H](Oc1cccc2ccccc12)c1cccs1 [Duloxetine HCl] | < -5.15 |
| CC1(COc2ccc3c(c2)ncn3-c2ccc3cccc(N4CCC(N)CC4)c3n2)COC1 | < -6.01 |
| N#CC(=C(/N)Sc1ccccc1N)/C(C#N)=C(/N)Sc1ccccc1N | -1.85 |
| NS(=O)(=O)c1cccc2c1c([N+](=O)[O-])cc1nc(O)c(O)nc12 [NBQX disodium] | -0.911 |
| NC(N)=NCc1cccc(I)c1 [m-Iodobenzylguanidine hemisulfate] | 16.6 |
| Cc1cccc(C)c1NC(=O)C1CCCCN1C (stereo not given) [Mepivacaine HCl] | 3.04 |
| CCc1nc(-c2cccc(C)c2)c(-c2ccnc(NC(=O)c3ccccc3)c2)s1 | -2.44 |
| COc1cc(/C=C/C(=O)N2CCC=CC2=O)cc(OC)c1OC [Piperlongumine] | < -3.97 |
| N#Cc1ccc2[nH]cc(CCCCN3CCN(c4ccc5oc(C(N)=O)cc5c4)CC3)c2c1 [Vilazodone HCl] | -0.269 |
| CN1C(C(=O)Nc2ccccn2)=C(O)c2sccc2S1(=O)=O [Tenoxicam] | -0.164 |
| Cc1ncc([N+](=O)[O-])n1CC(O)CCl (stereo not given) [Ornidazole] | 2.41 |
| N=C(N)N [Guanidine HCl] | 3.87 |
| O=C1CCC(N2C(=O)c3ccccc3C2=O)C(=O)N1 (racemic) [(±)-Thalidomide] | 0.00298 |
| O=C1CCC(N2C(=O)c3ccccc3C2=O)C(=O)N1 (racemic) [Thalidomide] | 2.47 |
| CNC(=O)[C@H]1O[C@@H](n2cnc3c(NCc4cccc(I)c4)ncnc32)[C@H](O)[C@@H]1O | 0.0294 |
| C=C[C@H]1CN2CC[C@H]1C[C@@H]2[C@@H](O)c1ccnc2ccc(OC)cc12 [Quinidine sulfate] | -0.747 |
| Cn1c(=O)c2[nH]cnc2n(C)c1=O [Aminophylline ethylenediamine] | -0.511 |
| Cn1c(=O)c2[nH]cnc2n(C)c1=O [Aminophylline] | -2.18 |
